The whole screen tested about 310,000 compounds, of which about 2,200 (0.71%) showed an effect of 50% or more. Effects have a minus sign here. This is one part of the list.

The target of this experiment is human ether-à-go-go-related gene (hERG) potassium channel (human, UniProt Q12809). Kind of experiment: primary screen, population patch clamp on CHO cells stably expressing hERG.
human ether-à-go-go-related gene (hERG) potassium channel, sequence (Q12809 whole entry, looked up): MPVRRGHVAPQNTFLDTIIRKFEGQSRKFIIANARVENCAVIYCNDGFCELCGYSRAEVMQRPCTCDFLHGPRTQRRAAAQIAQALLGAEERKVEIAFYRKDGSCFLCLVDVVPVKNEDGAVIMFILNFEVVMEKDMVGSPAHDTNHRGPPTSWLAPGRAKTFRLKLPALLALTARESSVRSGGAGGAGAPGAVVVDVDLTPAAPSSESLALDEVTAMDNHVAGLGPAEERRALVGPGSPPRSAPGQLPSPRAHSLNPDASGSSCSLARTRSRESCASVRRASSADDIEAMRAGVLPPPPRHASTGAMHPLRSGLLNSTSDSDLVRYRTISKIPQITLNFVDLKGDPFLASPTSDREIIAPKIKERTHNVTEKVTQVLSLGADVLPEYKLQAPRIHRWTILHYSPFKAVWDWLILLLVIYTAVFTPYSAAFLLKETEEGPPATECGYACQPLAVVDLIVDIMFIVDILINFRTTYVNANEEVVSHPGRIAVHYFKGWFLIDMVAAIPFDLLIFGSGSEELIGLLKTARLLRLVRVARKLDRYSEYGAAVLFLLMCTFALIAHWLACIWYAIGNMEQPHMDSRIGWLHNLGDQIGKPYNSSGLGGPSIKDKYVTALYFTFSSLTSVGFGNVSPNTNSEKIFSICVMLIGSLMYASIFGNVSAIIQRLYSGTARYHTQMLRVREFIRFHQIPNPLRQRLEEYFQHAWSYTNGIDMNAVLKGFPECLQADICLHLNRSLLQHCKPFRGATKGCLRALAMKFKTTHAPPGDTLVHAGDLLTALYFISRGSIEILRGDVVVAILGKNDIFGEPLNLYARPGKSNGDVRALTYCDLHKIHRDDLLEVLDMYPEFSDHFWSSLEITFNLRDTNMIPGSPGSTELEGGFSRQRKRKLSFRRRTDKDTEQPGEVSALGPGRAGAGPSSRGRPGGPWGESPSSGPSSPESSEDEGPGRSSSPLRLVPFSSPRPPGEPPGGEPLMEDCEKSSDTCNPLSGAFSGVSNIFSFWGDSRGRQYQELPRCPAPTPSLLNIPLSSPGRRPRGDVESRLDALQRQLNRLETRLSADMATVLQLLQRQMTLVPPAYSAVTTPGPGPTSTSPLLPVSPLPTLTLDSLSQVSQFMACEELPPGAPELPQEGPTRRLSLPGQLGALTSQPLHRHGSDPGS
With `O=C1CCN(C(=O)c2ccc(Cl)cc2)N1`, the “hERG current change (%, negative = inhibition) at 1uM” value was -14.1%.
The figure for `COc1ccc(N2CCN(CCCNS(=O)(=O)c3ccc4c(c3)oc(=O)n4C)CC2)cc1` is 0.0978%; for `CCc1nnc(NC(=O)c2nc(S(=O)(=O)Cc3cccc(C)c3)ncc2Cl)s1` it is 5.73%.
In the case of `Cc1cccc(N2CCN(C(=O)CCS(=O)(=O)c3ccc(Br)cc3)CC2C)c1` (centres unmarked) it was 5.34%.
On to `COc1ccc(OC)c(CNCc2ccc3c(c2)OCO3)c1.O=C(O)C(=O)O`, for which the “hERG current change (%, negative = inhibition) at 1uM” value is recorded as 5.04%.
For `COc1ccc2[nH]c(C(=O)N3CCCN(Cc4ccc(F)cc4)CC3)cc2c1`, the “hERG current change (%, negative = inhibition) at 1uM” value came to 9.35%.
The figure for `O=[N+]([O-])c1ccccc1S(=O)(=O)NC1CCCCCCC1` is 7.01%.
As to `Cc1c(C(=O)N2CCOCC2)c(S(=O)(=O)Nc2cccc(C#N)c2)c(C)n1C`, the “hERG current change (%, negative = inhibition) at 1uM” value worked out at 15.6%.
In the case of `O=C1CC(c2ccsc2)c2ccc3ccccc3c2N1` (centres unmarked) it was 11.3%; in that of `COc1ccc(OC)c(NC(=O)CN(C)S(=O)(=O)c2ccc3nc(C)sc3c2)c1`, 0.767%; in that of `CCn1c(N)c(C(=O)NCCCOC)sc1=S`, 21.6%.
The figure for `Cc1ccc(Cl)cc1N1CCN(Cc2cc3c(cc2O)CCC3)CC1` is 4.19%.
In the case of `CCOC(=O)C1CCN(C(=O)COC(=O)c2ccc3c(c2)C(=O)N(c2ccc(OCC)cc2)C3=O)CC1` it was 8.6%; in that of `COc1ccc(CNC(=O)[C@H](Cc2ccccc2)NC(=O)C2CCNCC2)cc1`, 18.2%; in that of `Cc1ccc(C(=O)NCC(=O)Nc2ccc3c(c2)OCCO3)cc1`, 19.4%.
Take `Cc1ccc(/C=C2/C(=O)NC(=O)N(CCc3ccc(F)cc3)C2=O)s1`: the “hERG current change (%, negative = inhibition) at 1uM” value is 11.9%.
In the case of `Cc1ccc(CNC(=O)CC(C)S(=O)(=O)c2ccc3c(c2)NC(=O)C(C)S3)cc1` (centres unmarked) it was -1.7%; in that of `Brc1ccc(OCCCN2CCOCC2)cc1.O=C(O)C(=O)O`, -4.29%.
In the case of `CC(C)C(C(=O)NCC1CCCO1)N(C(=O)CNS(=O)(=O)c1ccccc1)c1ccc(F)cc1` (centres unmarked) it was 13.7%; in that of `CCN(CC)S(=O)(=O)c1cccc(C(=O)OCC(=O)Nc2ccccc2OC(F)F)c1`, 4.6%.
Turning to `O=C(c1ccccc1Oc1ccc([N+](=O)[O-])cc1)N1CCOCC1`, the “hERG current change (%, negative = inhibition) at 1uM” value is recorded as -4.32%.
In the case of `COc1ccc(S(=O)(=O)Nc2cc3c4c(c2)CCC(=O)N4CCC3)cc1`, the “hERG current change (%, negative = inhibition) at 1uM” value is listed as -3.7%.
In the case of `CSCC(=O)NC1CCCc2c1cnn2-c1cc(F)cc(F)c1` (centres unmarked) it was 8.16%.
In the case of `CC(C)(C)c1ccc(-n2ncc3c2CCCC3NC(=O)CN2CCCCC2=O)cc1` (centres unmarked) it was 20.1%; in that of `O=C(O)c1ccc(C(=O)Nc2cccc3ccccc23)c(C(=O)O)c1`, 12.5%.
The figure for `CC(Sc1ccc(S(=O)(=O)N2CCN(C)CC2)cn1)C(=O)NC1CCCCC1` (centres unmarked) is 5.07%; for `Cc1noc(C)c1CSCC(=O)Nc1ccc(Br)cc1Cl` it is -11.6%; for `Cc1cccc(NC(=O)c2onc3c2CCCC3)c1C` it is 8.78%.
As to `CCOP(=S)(OCC)SCC(=O)NC(C(=O)O)C(C)C` (centres unmarked), the “hERG current change (%, negative = inhibition) at 1uM” value is on record as 9.01%.
In the case of `O=C(Nc1ccc2c(c1)OCCO2)c1cncc(Br)c1` it was 6.64%.
For `O=C(Oc1ccccc1)N1CCCC1`, the “hERG current change (%, negative = inhibition) at 1uM” value is listed as 14.4%.
The figure for `CCOc1ccc(Nc2nc(NCC3CCCO3)c3ccccc3n2)cc1.Cl` (centres unmarked) is -19%; for `CCOC(=O)c1c(CN2CCN(C)CC2)n(C)c2cc(Br)c(OC)cc12` it is -12.4%; for `O=C(COC(=O)CCSc1ccc(Cl)cc1)NCc1ccccc1Cl` it is -0.039%.
The figure for `CN1CCC(=NNC(=O)C(=O)Nc2cccc(Br)c2)CC1` is 11.5%; for `Cc1ccc(NC(=O)c2ccc(=O)n(CC(=O)Nc3c(C)cc(C)cc3C)n2)cc1` it is -0.321%.
The figure for `O=C(CSc1nc(C(F)(F)F)cc(=O)[nH]1)N1CCOCC1` is 10.6%; for `Cc1ccc2c(Cl)cc(Cl)c(OCC(=O)NC(C)(C)C)c2n1` it is 10.8%; for `O=C(Nc1cccnc1)c1sc(Nc2ccccc2)nc1-c1ccccc1` it is 9.25%.
As for `C=C(c1ccc(O)cc1)c1ccc(O)cc1`, the “hERG current change (%, negative = inhibition) at 1uM” value is on record as -0.0175%.
For the compound `CC(C)CC(=O)Nc1ccc(OCC(=O)O)cc1`, the “hERG current change (%, negative = inhibition) at 1uM” value is on record as 2.73%.
The figure for `CC(NCc1ccc(OCC(N)=O)cc1)C12CC3CC(CC(C3)C1)C2.Cl` (centres unmarked) is 9.06%; for `N#CCCn1cc(C(=O)Nc2ccc(F)cc2)c(-c2ccc([N+](=O)[O-])cc2)n1` it is 6.48%.
Turning to `O=C1C2CCCCC2C(=O)N1c1ccc(NC2CCN(Cc3ccccc3)CC2)c([N+](=O)[O-])c1` (centres unmarked), the “hERG current change (%, negative = inhibition) at 1uM” value is -0.582%.
With `CCSc1oc(-c2ccccc2)nc1S(=O)(=O)c1ccccc1`, the “hERG current change (%, negative = inhibition) at 1uM” value stood at 8.1%.
In the case of `Fc1cccc(CCNCc2ccccn2)c1` it was 11.3%; in that of `O=C(N=Nc1c(O)[nH]c2ccccc12)c1cccc(S(=O)(=O)N2CCCCC2)c1`, 5.9%.
In the case of `COc1ccc(C2CC(C(F)(F)F)n3ncc(C(=O)Nc4c(C)n(C)n(-c5ccccc5)c4=O)c3N2)cc1` (centres unmarked) it was 14.4%; in that of `COc1ccccc1/C=N/N=C(/N)N[N+](=O)[O-]`, 6.95%.
The figure for `COc1ccc(S(N)(=O)=O)cc1N(C)S(=O)(=O)c1ccccc1` is 16.1%; for `CC(=O)c1cccc(NC(=O)CN(Cc2ccccc2)S(C)(=O)=O)c1` it is 6.95%; for `O=C(Nc1ccc(C(=O)O)cc1)/C(=C\c1ccco1)NC(=O)c1ccccc1` it is 13.9%.
For the compound `CCOc1ccc(S(=O)(=O)N(CC(=O)N/N=C/c2cccs2)c2ccc(C)cc2)cc1`, the “hERG current change (%, negative = inhibition) at 1uM” value is listed as 0.735%.
In the case of `Cn1c(=O)c2ncn(CC(=O)N/N=C/c3ccco3)c2n(C)c1=O` it was 10.7%.
Regarding `O=C(O)c1cccc2c1C(=O)c1cc(Br)ccc1S2(=O)=O`, the “hERG current change (%, negative = inhibition) at 1uM” value was 13%.
`O=C(c1ccc(Cl)cc1)c1ccc(CN2C(=O)c3ccccc3C2=O)o1`: the “hERG current change (%, negative = inhibition) at 1uM” value is 9.77%.

For the origin of these results see paper PMC4336329 (PLoS ONE, 2015).
